# The IC50 comes from the fitted curve, where viability falls to half of the control; where the fit passes the top or lowest dose, that dose stands as a limit. AUC sums up the same curve from the lowest dose to the 256-fold higher top dose; the more sensitive the line, the further below 1. An inferred top dose comes from the curve model; the source does not state it.
# Key:
# Assay in all cases: Viability of human cancer cell lines after 72 h of drug (GDSC screen)
# FH535 = compound: Cc1cc([N+](=O)[O-])ccc1NS(=O)(=O)c1cc(Cl)ccc1Cl [FH535]; conditions: top dose 32 µM; top dose inferred
# Method: (§1)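 Human cancer cell lines in 384-well plates, medium with 10% serum, drug for 72 h over a 256-fold dose range (nine 2-fold or five 4-fold steps up to the top dose). Adherent lines were fixed and stained with the nucleic acid dye Syto60, suspension lines read with resazurin; signal relative to control wells, capped at 0 and 100%. One two-parameter sigmoid per drug and line, fitted in a mixed model over all curves with the slope shared within a line.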
# AT-7519 = compound: O=C(NC1CCNCC1)c1n[nH]cc1NC(=O)c1c(Cl)cccc1Cl [AT-7519]; conditions: top dose 10.24 µM; top dose inferred
# Method: as §1
# XMD14-99 = compound: COc1cc(N2CCN(C)CC2)ccc1Nc1nc(N)c(C(=O)c2c(Cl)cccc2Cl)s1 [XMD14-99]; conditions: top dose 10.24 µM; top dose inferred
# Method: as §1
Cell Line,AUC (FH535),IC50 (FH535),AUC (AT-7519),IC50 (AT-7519),AUC (XMD14-99),IC50 (XMD14-99)
"Caov-3 (ovary, adherent)",0.907,> 32 µM,0.693,2.06 µM,0.987,> 10.2 µM
"JHU-029 (head and neck, adherent)",0.705,8.71 µM,–,–,–,–
"HCC-827 (lung adenocarcinoma, adherent)",0.55,2.79 µM,0.726,3.14 µM,0.982,> 10.2 µM
"NCI-H2029 (small cell lung carcinoma, adherent)",0.869,24.7 µM,0.645,1.54 µM,0.992,> 10.2 µM
"NCI-H1573 (lung adenocarcinoma, adherent)",0.834,20 µM,0.847,7.22 µM,0.987,> 10.2 µM
"SNU-1040 (large intestine, adherent)",–,–,0.246,0.0902 µM,0.979,> 10.2 µM
"HuO9 (osteosarcoma, adherent)",0.896,> 32 µM,0.428,0.397 µM,0.917,> 10.2 µM
"A427 (non-small cell lung carcinoma, adherent)",0.184,0.222 µM,0.815,5.71 µM,0.985,> 10.2 µM
"NCI-H2444 (non-small cell lung carcinoma, adherent)",0.966,> 32 µM,0.967,> 10.2 µM,0.986,> 10.2 µM
"MDA-MB-175-VII (breast, adherent)",0.493,1.91 µM,0.929,> 10.2 µM,0.981,> 10.2 µM
"NCI-H196 (small cell lung carcinoma, adherent)",0.93,> 32 µM,0.892,> 10.2 µM,0.971,> 10.2 µM
"OSC-20 (head and neck, adherent)",0.557,2.95 µM,0.762,4.32 µM,0.971,> 10.2 µM
"SK-OV-3 (ovary, adherent)",0.688,7.79 µM,0.489,0.594 µM,0.979,> 10.2 µM
"KU-19-19 (bladder, adherent)",0.835,21 µM,0.687,2.13 µM,0.987,> 10.2 µM
"SW1990 (pancreas, adherent)",0.654,5.77 µM,0.881,> 10.2 µM,0.981,> 10.2 µM
"OACM5-1 (oesophagus, semi-adherent)",–,–,0.228,0.0922 µM,0.952,> 10.2 µM
"EFO-27 (ovary, adherent)",0.626,4.87 µM,0.703,2.78 µM,0.976,> 10.2 µM
"RD (rhabdomyosarcoma, adherent)",0.657,5.72 µM,0.702,2.53 µM,0.985,> 10.2 µM
"DBTRG-05MG (glioma, adherent)",0.719,9.4 µM,0.797,5.78 µM,0.977,> 10.2 µM
"COR-L311 (small cell lung carcinoma, suspension)",–,–,0.062,< 0.04 µM,0.947,> 10.2 µM
"CAL-78 (chondrosarcoma, adherent)",0.874,> 32 µM,0.986,> 10.2 µM,0.986,> 10.2 µM
"MS751 (cervix, adherent)",0.605,3.8 µM,0.668,1.8 µM,0.987,> 10.2 µM
"NCI-H2342 (lung adenocarcinoma, adherent)",0.631,4.78 µM,0.851,9.15 µM,0.986,> 10.2 µM

Cell Line,AUC (FH535),IC50 (FH535),AUC (AT-7519),IC50 (AT-7519),AUC (XMD14-99),IC50 (XMD14-99)
"SKN (uterus, adherent)",0.68,7.12 µM,0.802,6.3 µM,0.897,> 10.2 µM
"EMC-BAC-2 (lung adenocarcinoma, adherent)",–,–,0.757,4.15 µM,0.981,> 10.2 µM
"SU-DHL-10 (B-cell lymphoma, suspension)",–,–,0.231,0.143 µM,0.932,8.05 µM
"OC-314 (ovary, adherent)",–,–,0.7,2.13 µM,0.981,> 10.2 µM
"YH-13 (glioma, adherent)",–,–,0.795,5.07 µM,0.986,> 10.2 µM
"OV-17R (ovary, adherent)",–,–,0.95,> 10.2 µM,0.975,> 10.2 µM
"CFPAC-1 (pancreas, adherent)",–,–,0.786,5.14 µM,0.98,> 10.2 µM
"OVCA420 (ovary, adherent)",–,–,0.956,> 10.2 µM,0.981,> 10.2 µM
"RCC-AB (kidney, adherent)",–,–,0.762,4.75 µM,0.949,> 10.2 µM
"OACp4C (oesophagus, adherent)",–,–,0.455,0.471 µM,0.971,> 10.2 µM
"ESO26 (oesophagus, adherent)",–,–,0.455,0.486 µM,0.944,> 10.2 µM
"TE-4 (oesophagus, adherent)",–,–,0.779,4.18 µM,0.984,> 10.2 µM
"A172 (glioma, adherent)",0.634,4.63 µM,–,–,0.978,> 10.2 µM
"RCC-JF (kidney, adherent)",–,–,0.731,3.2 µM,0.981,> 10.2 µM
"KOSC-2 (head and neck, adherent)",0.978,> 32 µM,–,–,0.985,> 10.2 µM
"IGR-1 (melanoma, adherent)",0.439,1.39 µM,–,–,0.948,> 10.2 µM
"EMC-BAC-1 (lung adenocarcinoma, adherent)",–,–,0.706,2.67 µM,0.911,> 10.2 µM
"KMS-11 (myeloma, suspension)",–,–,0.761,3.15 µM,0.989,> 10.2 µM
"A2780 (ovary, semi-adherent)",0.669,6.03 µM,–,–,0.854,8.57 µM
"RCC-JW (kidney, adherent)",–,–,0.317,0.194 µM,0.946,> 10.2 µM
"COR-L303 (small cell lung carcinoma, suspension)",–,–,0.329,0.217 µM,0.975,> 10.2 µM
"KYAE-1 (oesophagus, suspension)",–,–,0.442,0.437 µM,0.969,> 10.2 µM
"SNU-81 (large intestine, adherent)",–,–,0.481,0.56 µM,0.982,> 10.2 µM

Cell Line,AUC (FH535),IC50 (FH535),AUC (AT-7519),IC50 (AT-7519),AUC (XMD14-99),IC50 (XMD14-99)
"HCT-116 (large intestine, adherent)",0.628,4.42 µM,–,–,0.935,> 10.2 µM
"SNU-175 (large intestine, suspension)",–,–,0.497,0.63 µM,0.892,> 10.2 µM
"D-423MG (glioma, adherent)",–,–,0.67,2.13 µM,0.965,> 10.2 µM
"Hey (ovary, adherent)",–,–,0.629,1.42 µM,0.985,> 10.2 µM
"CADO-ES1 (Ewing sarcoma, suspension)",–,–,0.85,8 µM,0.858,8.63 µM
"DOV13 (ovary, adherent)",–,–,0.971,> 10.2 µM,0.974,> 10.2 µM
"FLO-1 (oesophagus, adherent)",–,–,0.465,0.492 µM,0.966,> 10.2 µM
"SCC90 (head and neck, adherent)",0.739,13.2 µM,0.514,0.71 µM,–,–
"RH-18 (rhabdomyosarcoma, adherent)",–,–,0.462,0.495 µM,–,–
"SNU-61 (large intestine, adherent)",–,–,0.319,0.168 µM,0.983,> 10.2 µM
"OV-90 (ovary, adherent)",–,–,0.687,2.49 µM,0.972,> 10.2 µM
"UWB1.289 (ovary, adherent)",–,–,0.832,> 10.2 µM,0.979,> 10.2 µM
"PEO1 (ovary, adherent)",–,–,0.694,2.31 µM,0.979,> 10.2 µM
"OVCA433 (ovary, adherent)",–,–,0.918,> 10.2 µM,0.98,> 10.2 µM
"SNU-C5 (large intestine, adherent)",–,–,0.794,5.25 µM,0.968,> 10.2 µM
"RCC-MF (kidney, adherent)",–,–,0.773,5.24 µM,0.948,> 10.2 µM
"D-566MG (glioma, adherent)",–,–,0.672,1.92 µM,0.984,> 10.2 µM
"CHP-134 (neuroblastoma, suspension)",–,–,0.767,4.83 µM,0.954,> 10.2 µM
"OV-7 (ovary, adherent)",–,–,0.551,0.948 µM,0.934,> 10.2 µM
"A2058 (melanoma, adherent)",0.485,1.82 µM,–,–,0.986,> 10.2 µM
"KP-1N (pancreas, adherent)",0.586,3.48 µM,0.462,0.503 µM,–,–
"NCI-H2052 (mesothelioma, adherent)",–,–,0.962,> 10.2 µM,0.97,> 10.2 µM
"NCI-H630 (large intestine, adherent)",–,–,0.977,> 10.2 µM,0.978,> 10.2 µM

Cell Line,AUC (FH535),IC50 (FH535),AUC (AT-7519),IC50 (AT-7519),AUC (XMD14-99),IC50 (XMD14-99)
"COR-L321 (lung, suspension)",–,–,0.364,0.27 µM,0.96,> 10.2 µM
"RCC-ER (kidney, adherent)",–,–,0.913,> 10.2 µM,0.972,> 10.2 µM
"SK-MG-1 (glioma, adherent)",–,–,0.888,> 10.2 µM,0.936,> 10.2 µM
"SNU-407 (large intestine, adherent)",–,–,0.815,6.83 µM,0.98,> 10.2 µM
"HCC202 (breast, adherent)",0.489,1.84 µM,0.47,0.511 µM,–,–
"QGP-1 (pancreas, adherent)",–,–,0.6,1.42 µM,0.951,> 10.2 µM
"SW1116 (large intestine, adherent)",–,–,0.985,> 10.2 µM,0.985,> 10.2 µM
"NCC021 (kidney, adherent)",–,–,0.975,> 10.2 µM,0.957,> 10.2 µM
"NCI-H292 (lung adenocarcinoma, adherent)",0.732,10.7 µM,–,–,0.979,> 10.2 µM
"OV-56 (ovary, adherent)",–,–,0.736,2.92 µM,0.985,> 10.2 µM
"JHOS-2 (ovary, adherent)",–,–,0.918,> 10.2 µM,0.981,> 10.2 µM
"OVK-18 (ovary, adherent)",–,–,0.925,> 10.2 µM,0.964,> 10.2 µM
"Hs746T (stomach, adherent)",–,–,0.713,3.2 µM,0.981,> 10.2 µM
"STS-0421 (soft tissue, adherent)",0.645,5.41 µM,0.379,0.28 µM,–,–
"HT-1197 (bladder, adherent)",0.716,9.25 µM,–,–,0.979,> 10.2 µM
"RCC-FG2 (kidney, adherent)",–,–,0.961,> 10.2 µM,0.971,> 10.2 µM
"JHOS-3 (ovary, adherent)",–,–,0.846,> 10.2 µM,0.968,> 10.2 µM
"NCI-H1793 (lung adenocarcinoma, adherent)",–,–,0.933,> 10.2 µM,0.982,> 10.2 µM
"SK-MEL-5 (melanoma, adherent)",–,–,0.884,> 10.2 µM,0.975,> 10.2 µM
"YMB-1-E (breast, adherent)",–,–,0.887,> 10.2 µM,0.979,> 10.2 µM
"ESO51 (oesophagus, semi-adherent)",–,–,0.552,0.94 µM,0.977,> 10.2 µM
"SK-GT-4 (oesophagus, adherent)",–,–,0.711,2.95 µM,0.97,> 10.2 µM
"IHH-4 (thyroid, semi-adherent)",0.447,1.48 µM,–,–,0.99,> 10.2 µM
